This note sets out measurements from PubChem BioAssay AID360 (National Center for Advancing Translational Sciences (NCATS), 2006).

SMILES strings stand for the structures. Among all 48,000 compounds or so, about 550 (1.1%) were called active. Not shown: some 4% with an inconclusive outcome. Rule as the data show it: active = potency below about 15 µM; inconclusive = mostly about 16 µM to 33 µM; inactive = weaker than that. Some of the results follow. Where only a bound is given, the exact number is not on record here.
Potency is read from the fitted curve at half-maximal effect.

Chain of UniProt P04062 (P04062 whole entry, looked up): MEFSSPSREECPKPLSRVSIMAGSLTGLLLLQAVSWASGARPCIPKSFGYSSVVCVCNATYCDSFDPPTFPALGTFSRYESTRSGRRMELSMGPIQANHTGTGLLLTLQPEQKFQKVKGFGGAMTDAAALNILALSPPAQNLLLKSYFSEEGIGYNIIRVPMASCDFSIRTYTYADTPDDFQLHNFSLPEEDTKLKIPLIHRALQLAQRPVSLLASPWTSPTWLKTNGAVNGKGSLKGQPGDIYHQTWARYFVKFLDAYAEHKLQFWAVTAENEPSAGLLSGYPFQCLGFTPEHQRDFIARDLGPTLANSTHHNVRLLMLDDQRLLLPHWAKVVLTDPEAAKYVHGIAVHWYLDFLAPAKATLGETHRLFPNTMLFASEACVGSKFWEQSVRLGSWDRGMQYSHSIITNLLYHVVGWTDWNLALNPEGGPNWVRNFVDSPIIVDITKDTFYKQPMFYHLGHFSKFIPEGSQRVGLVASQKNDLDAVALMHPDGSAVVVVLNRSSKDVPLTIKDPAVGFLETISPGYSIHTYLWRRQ

For this test, the target named is Lysosomal acid glucosylceramidase (Homo sapiens) (UniProt P04062). Description: Glucocerebrosidase.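 Also: the screen sought inhibitors.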 To be noted: purified enzyme, resorufin glucoside fluorescence (screen aimed at inhibitors), 20 min. The essentials:
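Wild-type enzyme at 0.2 nM final in 50mM citric acid/KH2PO4, 10mM sodium taurocholate, 0.01% tween-20, pH 5.9, with resorufin beta-D-glucopyranoside at 30 uM final. Compounds titrated, 20 min at RT, red fluorescence read; AC50 from titration.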
As for `COc1ccc(-n2cnnc2SCC(=O)c2ccc(S(=O)(=O)N3CCOCC3)cc2)cc1`, the Potency was inactive: > 76.9 µM.

For `O=C(NC1CCCCCC1)c1cc2n(n1)C(C(F)(F)F)CC(c1ccco1)N2` (configuration not stated), the Potency is inactive: > 76.9 µM.

`CN1CCN(CCCNC(=O)CCCOc2cc(=O)n(C)c3ccccc23)CC1`: the Potency is inactive: > 76.9 µM.

As for `O=C(c1cccn2c(=O)c3cc(Br)ccc3nc12)N1CCN(c2ccccn2)CC1`, the Potency is inactive: > 76.9 µM.

Take `CC1CCN(CCCNC(=O)C2CCC(=O)N2C2CCCC2)CC1` (configuration not stated): the Potency was inactive: > 76.9 µM.

With `O=S(=O)(NC1CC1)c1ccc(S(=O)(=O)N2CCN3CCCC3C2)cc1` (configuration not stated), the Potency is inactive: > 76.9 µM.

Take `CCCNC(=O)c1cccc(Cn2nc(C)c(Br)c2C)c1`: the Potency was inactive: > 76.9 µM.

On to `CCOC(=O)Cn1c(=O)c2c(nc(Br)n2Cc2ccccc2)n(C)c1=O`, for which the Potency was inactive: > 76.9 µM.

For the compound `CCOC(=O)N1CCC(NC(=O)C(C)n2c3ccccc3c3cnn(C)c(=O)c32)CC1` (configuration not stated), the Potency is inactive: > 76.9 µM.

With `Cc1ccccc1C(=O)N(C)Cc1ccccc1`, the Potency is inactive: > 76.9 µM.

For the compound `O=C(CCC(=O)c1cccs1)NCc1ccccc1`, the Potency was inactive: > 76.9 µM.

With `COc1ccc(CNCCNC(=O)c2nonc2N)cc1OC`, the Potency was inactive: > 76.9 µM.

For the compound `Cc1ccc2c(c1)cc(CN(Cc1ccco1)C(=O)COc1ccccc1)c1nnnn12`, the Potency was inactive: > 76.9 µM.

Regarding `CCOC(=O)N1CCN(S(=O)(=O)c2cc(C)c(C)cc2C)CC1`, the Potency was inactive: > 76.9 µM.

Turning to `O=C(CCn1c(=O)oc2ccccc21)n1c(=O)oc2ccccc21`, the Potency was inactive: > 76.9 µM.

Consider `Cc1ccc2c(c1)-c1c(cnn1CC(=O)O)CO2`, for which the Potency is inactive: > 76.9 µM.

Regarding `O=c1oc(-c2cccs2)nc2scc(-c3cccs3)c12`, the Potency was inactive: > 76.9 µM.

With `COC(=O)c1cc(S(=O)(=O)NC2CCN(Cc3ccccc3)CC2)cn1C`, the Potency was inactive: > 76.9 µM.

`O=C(Nc1ccon1)c1cnc2sccn2c1=O`: the Potency was inactive: > 76.9 µM.

For the compound `Cc1ccccc1OCc1nc2ccccc2c(=O)n1/N=C/c1ccco1`, the Potency was inactive: > 76.9 µM.

`Cc1cc(C)nc(N(C#N)Cc2ccc(Br)cc2)n1`: the Potency is inactive: > 76.9 µM.

Regarding `CCNc1nc(NC#N)nc(SCC(=O)OCC)n1`, the Potency was inactive: > 76.9 µM.

Turning to `O/N=C1\CC/C(=N\O)c2nn(-c3ccc(Cl)cc3Cl)nc21`, the Potency was inactive: > 76.9 µM.

Regarding `COc1cccc(C2C(C#N)=C(N)Oc3cc(C)n(Cc4ccccn4)c(=O)c32)c1OC` (configuration not stated), the Potency is inactive: > 76.9 µM.

`COC(=O)C1C(=O)NC(SC)=C(C#N)C1c1ccccc1` (configuration not stated): the Potency is inactive: > 76.9 µM.

Turning to `O=C(NCc1ccco1)c1ccc2c(c1)C(=O)c1ccccc1-2`, the Potency was inactive: > 76.9 µM.

Take `CCOC(=O)N1CCC(N2CCN(S(=O)(=O)CC)CC2)CC1`: the Potency was inactive: > 76.9 µM.

With `COc1cc(CNC(=O)c2ccc(Cn3nc(C)c(Cl)c3C)o2)cc(OC)c1`, the Potency is inactive: > 76.9 µM.

`COc1ccc(S(=O)(=O)N2CCN(c3cc(-c4ccccc4)nc4ncnn34)CC2)cc1`: the Potency was inactive: > 76.9 µM.

Consider `N#CCCN(Cc1cccnc1)C(=O)c1ccc(S(=O)(=O)N2CCOCC2)cc1`, for which the Potency is inactive: > 76.9 µM.

With `CC1CCCCC1NC(=O)CSc1nnc(N)s1` (configuration not stated), the Potency is inactive: > 76.9 µM.

Take `CSc1nsc(SC)c1NC(=O)OCC1CCCO1` (configuration not stated): the Potency was inactive: > 76.9 µM.

Regarding `O=C(CC(Sc1ccccc1)c1cccs1)c1ccco1` (configuration not stated), the Potency is inactive: > 76.9 µM.

For the compound `CCOC(=O)c1sc2nc(SCC#N)n(CC3CCCO3)c(=O)c2c1C` (configuration not stated), the Potency is inactive: > 76.9 µM.

For the compound `C/C(=C\C(=O)c1ccc(C)o1)Nc1ccc(C(=O)O)cc1C`, the Potency is inactive: > 76.9 µM.

With `CCC(OC(=O)c1cc2sccc2n1C)C(=O)NCC1CCCO1` (configuration not stated), the Potency is inactive: > 76.9 µM.

Turning to `O=C(c1cccs1)N1CCN(S(=O)(=O)N2CCCCC2)CC1`, the Potency was inactive: > 76.9 µM.

For the compound `CC(C)OC(=O)CSc1nnc(-c2ccccn2)n1-c1ccccc1`, the Potency is inactive: > 76.9 µM.

Turning to `CCS(=O)(=O)c1nnnn1-c1ccccc1S(C)(=O)=O`, the Potency was inactive: > 76.9 µM.

With `COC(=O)c1ccc2c(=O)n(CCN3CCOCC3)c(SCC(=O)NC3CCCCC3)nc2c1`, the Potency is inactive: > 76.9 µM.

With `CCCNC(=O)c1c(N)n(-c2ccc3c(c2)OCO3)c2nc3ccccc3nc12`, the Potency was inactive: > 76.9 µM.

On to `Oc1c(CN2CCCCC2)cc(Br)c2cccnc12`, for which the Potency was inactive: > 76.9 µM.

Regarding `CC(c1ccccc1)n1cc(C(=O)NCc2ccccn2)nn1` (configuration not stated), the Potency was inactive: > 76.9 µM.

For `O=C(NCC1CCCO1)C1CCN(S(=O)(=O)Cc2ccccc2)CC1` (configuration not stated), the Potency was inactive: > 76.9 µM.

As for `O=C1CC(N2CCN(c3ccc(S(=O)(=O)N4CCCC4)cc3)CC2)C(=O)N1c1ccc(F)cc1` (configuration not stated), the Potency is inactive: > 76.9 µM.

In the case of `CCOC(=O)CCC(NC(=O)c1ccc(NCN2C(=O)CCC2=O)cc1)C(=O)OCC` (configuration not stated), the Potency is inactive: > 76.9 µM.

Regarding `CCOc1ccccc1-c1nnc(SCC(=O)Nc2ccccc2)o1`, the Potency is inactive: > 76.9 µM.

As to `CC(=O)C1C(c2ccc(F)c(F)c2)NC(=O)NC1(O)C(F)(F)F` (configuration not stated), the Potency was inactive: > 76.9 µM.

Take `CCN(CC)c1nc(Nc2ccccc2)nc(Oc2ccc(=O)[nH]n2)n1`: the Potency was inactive: > 76.9 µM.

For the compound `CC1(C)CC2CC(C)(CN2c2ncnc3ccccc23)C1` (configuration not stated), the Potency is inactive: > 76.9 µM.

Consider `O=c1nc(NC2CCCC2)ccn1Cc1cccc(Br)c1`, for which the Potency is inactive: > 76.9 µM.

Consider `COc1ccc(CNC(=O)C2CC(c3cccc(OC)c3)=NO2)cc1` (configuration not stated), for which the Potency was inactive: > 76.9 µM.

As to `CCOC(=O)c1sc2ccc(S(=O)(=O)N3CCCCC3)cc2c1N`, the Potency was inactive: > 76.9 µM.

For `COc1ccccc1NC=C1C(=O)OC2(CCCCC2)OC1=O`, the Potency is inactive: > 76.9 µM.

Regarding `CNC(=O)c1ccccc1NC(=O)c1cccc(S(=O)(=O)N2CCC(C)CC2)c1`, the Potency was inactive: > 76.9 µM.

For `CCCCOP(=O)(c1ccc(N(C)C)cc1)C(O)c1ccncc1` (configuration not stated), the Potency was inactive: > 76.9 µM.

On to `COc1cccc(OCC(=O)Nc2ccccc2C(N)=O)c1`, for which the Potency was inactive: > 76.9 µM.

As to `O=C(Cn1c(-c2ccccn2)nc2ccccc21)NCCN1CCOCC1`, the Potency is inactive: > 76.9 µM.

With `COc1ccccc1OCC(=O)Nc1cccc(-c2nc3ccccc3o2)c1`, the Potency is inactive: > 76.9 µM.

For `O=C(O)C1C2C=CC3(CN(Cc4ccncc4)C(=O)C13)O2` (configuration not stated), the Potency is inactive: > 76.9 µM.

As for `O=c1ccnc(NCCc2ccccc2)[nH]1`, the Potency was inactive: > 76.9 µM.

`CCOc1ccccc1CNC(=O)C1CCC(=O)N1C(C)C` (configuration not stated): the Potency was inactive: > 76.9 µM.

Turning to `CCNc1nc(NC(C)C)nc(N(C#N)CCOc2ccc(Cl)cc2Cl)n1`, the Potency was inactive: > 76.9 µM.

Consider `CCOc1ccc(OCc2ccc(C(=O)O)o2)cc1`, for which the Potency was inactive: > 76.9 µM.

As for `CC1(C)CC(=O)C(C=NC(CCC(N)=O)C(=O)O)=C(O)C1` (configuration not stated), the Potency was inactive: > 76.9 µM.

In the case of `CSc1nc(C)c(Cl)c(C)c1C#N`, the Potency was inactive: > 76.9 µM.

Regarding `COc1ccc(C)cc1-n1nnnc1SCC1CCCCO1` (configuration not stated), the Potency was inactive: > 76.9 µM.

Take `CCC(C)C(NC(=O)OC(C)(C)C)C(=O)NCc1ccco1` (configuration not stated): the Potency is inactive: > 76.9 µM.

Consider `OC(Cn1cncn1)c1ccc(Cl)cc1Cl` (configuration not stated), for which the Potency was inactive: > 76.9 µM.

With `CCOc1ccccc1NC(=O)CCc1ccc(C)o1`, the Potency is inactive: > 76.9 µM.

Regarding `CCCC(=O)Nc1c2c(nn1-c1ccc(OC)cc1)CS(=O)(=O)C2`, the Potency is inactive: > 76.9 µM.

On to `Cn1ncc2c(NCc3ccccc3)ncnc21`, for which the Potency is inactive: > 76.9 µM.

For `Cc1ccc(Cn2ccc(NC(=O)c3noc4c3CCCCC4)n2)cc1`, the Potency is inactive: > 76.9 µM.

On to `Cc1cccc(-c2noc(CCCC(=O)Nc3cccnc3)n2)c1`, for which the Potency entry is “inactive”.

Turning to `CCOc1ccc(S(=O)(=O)NCc2csc(C)n2)cc1`, the Potency was inactive: > 76.9 µM.

Take `Cc1ccc2cc(CN(CC3CCCO3)C(=O)c3ccco3)c(=O)[nH]c2c1C` (configuration not stated): the Potency was inactive: > 76.9 µM.

For the compound `COc1cc(S(=O)(=O)N2CCOCC2)c(OC)c(S(=O)(=O)N2CCOCC2)c1`, the Potency was inactive: > 76.9 µM.

Consider `COc1ccc(N2CCN(CC(=O)N3CCC(C)CC3)CC2)cc1`, for which the Potency is inactive: > 76.9 µM.

On to `CC(=O)c1coc2ccc(OCC(=O)O)cc12`, for which the Potency is inactive: > 76.9 µM.

On to `O=c1c2ccccc2nc2sc3ccccc3n12`, for which the Potency was inactive: > 76.9 µM.

As to `CCc1nc2ccccc2c(=O)n1CCCCn1c(CC)nc2ccccc2c1=O`, the Potency is inactive: > 76.9 µM.

For the compound `Cc1ccc(CNC(=O)CN(C)S(=O)(=O)c2cccc3nsnc23)cc1`, the Potency is inactive: > 76.9 µM.

Consider `CS(=O)(=O)N(CC(=O)NCC1CCCO1)c1ccc(F)c(Cl)c1` (configuration not stated), for which the Potency is inactive: > 76.9 µM.

Regarding `CC(=O)Nc1cccc(NS(=O)(=O)Cc2ccc(Cl)cc2)c1`, the Potency is inactive: > 76.9 µM.

Regarding `Cc1ccc(C(=O)C(C)OC(=O)C2=COCCO2)cc1C` (configuration not stated), the Potency was inactive: > 76.9 µM.

As for `Cc1ccccc1S(=O)(=O)Cc1ccc(C(=O)NCCN2CCCCC2C)o1` (configuration not stated), the Potency is inactive: > 76.9 µM.

Take `CCN(c1ccc2c(c1)OCO2)S(=O)(=O)c1cc(Br)cc2c1N(C(=O)C1CC1)CC2`: the Potency was inactive: > 76.9 µM.

For the compound `COc1cccc(N(CC(=O)Nc2cccc(N(C)S(C)(=O)=O)c2)S(C)(=O)=O)c1`, the Potency was inactive: > 76.9 µM.

In the case of `C=CCNC(=O)Cn1nc(-c2ccccc2)ccc1=O`, the Potency is inactive: > 76.9 µM.

`CCOC(=O)CN1C(=O)C(O)=C(C(C)=O)C1c1ccccc1` (configuration not stated): the Potency is inactive: > 76.9 µM.

Turning to `CCOc1ccc(NC(=O)CCS(=O)(=O)c2ccc3c(c2)CCCN3C(C)=O)cc1`, the Potency is inactive: > 76.9 µM.

Take `Cc1ccc(S(=O)(=O)Cn2nnnc2CN2CCOCC2)cc1`: the Potency was inactive: > 76.9 µM.
